About 2,200 (0.71%) of roughly 310,000 compounds showed an effect of 50% or more. The effect is printed as a negative number. Some of the results follow.

For the experiment, the target named is human ether-à-go-go-related gene (hERG) potassium channel (human, UniProt Q12809). Kind of experiment: primary screen, population patch clamp on CHO cells stably expressing hERG.
Chain of human ether-à-go-go-related gene (hERG) potassium channel (Q12809 whole entry, looked up): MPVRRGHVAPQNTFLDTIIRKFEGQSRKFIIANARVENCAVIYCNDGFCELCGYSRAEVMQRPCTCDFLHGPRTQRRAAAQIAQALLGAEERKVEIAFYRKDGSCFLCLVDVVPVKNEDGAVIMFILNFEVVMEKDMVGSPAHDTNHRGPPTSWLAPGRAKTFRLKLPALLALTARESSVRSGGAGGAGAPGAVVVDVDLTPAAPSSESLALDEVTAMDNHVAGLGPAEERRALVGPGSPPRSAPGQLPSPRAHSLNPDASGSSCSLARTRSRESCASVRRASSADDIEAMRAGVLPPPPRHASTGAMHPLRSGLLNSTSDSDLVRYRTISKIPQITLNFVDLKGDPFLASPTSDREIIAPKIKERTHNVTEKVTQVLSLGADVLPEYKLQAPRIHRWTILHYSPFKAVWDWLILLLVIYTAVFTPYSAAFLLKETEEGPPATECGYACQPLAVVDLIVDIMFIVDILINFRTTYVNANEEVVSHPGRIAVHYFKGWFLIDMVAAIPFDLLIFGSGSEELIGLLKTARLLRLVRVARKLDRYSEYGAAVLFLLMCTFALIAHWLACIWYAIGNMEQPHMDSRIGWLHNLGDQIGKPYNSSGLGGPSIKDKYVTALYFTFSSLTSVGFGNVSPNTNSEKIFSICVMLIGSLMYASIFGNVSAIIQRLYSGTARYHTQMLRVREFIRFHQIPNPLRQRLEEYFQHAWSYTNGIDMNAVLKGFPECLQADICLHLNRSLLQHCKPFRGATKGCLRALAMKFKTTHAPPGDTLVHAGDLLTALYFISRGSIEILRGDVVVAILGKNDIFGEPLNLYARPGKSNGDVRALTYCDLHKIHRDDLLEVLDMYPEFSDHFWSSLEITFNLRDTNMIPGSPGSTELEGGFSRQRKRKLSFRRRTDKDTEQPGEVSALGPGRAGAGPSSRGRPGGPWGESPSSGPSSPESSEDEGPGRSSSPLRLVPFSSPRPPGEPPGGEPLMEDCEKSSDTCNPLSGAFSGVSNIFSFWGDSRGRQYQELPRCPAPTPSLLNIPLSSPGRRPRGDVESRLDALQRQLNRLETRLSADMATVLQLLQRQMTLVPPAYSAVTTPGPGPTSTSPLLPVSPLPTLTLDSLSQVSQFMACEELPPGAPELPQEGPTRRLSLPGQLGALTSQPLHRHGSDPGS
`N#Cc1ccc(OCC(=O)NNC(=S)NC2CCCCC2)cc1`: the “hERG current change (%, negative = inhibition) at 1uM” value amounted to 4.01%.
The value for `CS(=O)(=O)c1ccc(Cl)c(NC(=O)CCCSc2ccccc2)c1` was 3.09%; that for `COc1ccc(Cn2c(N)c(C#N)c3nc4ccccc4nc32)cc1OC` was 13%; that for `CCn1c(=O)c(C(=O)NC(C)c2ccccc2)c(O)c2ccccc21` (stereo not shown) was 16.7%.
The value for `COc1cc(/C=N/Nc2ccc(Cl)nn2)cc(OC)c1O` was 16.5%; that for `Cc1ccc(-c2c(C)sc(=NC(=O)c3ccco3)n2C)cc1` was 11.4%; that for `CCN1CCc2c(sc(NC(=O)C3COc4ccccc4O3)c2C(N)=O)C1.Cl` (stereo not shown) was 2.54%.
The same measure for `O=C(Cc1ccc([N+](=O)[O-])cc1)N/N=C/c1ccccc1F`: 14.7%; for `CC1CCN(S(=O)(=O)c2ccc3[nH]cc(C(=O)NCCN4CCOCC4)c(=O)c3c2)CC1`: 11.5%; for `COc1ccc(C2CC(=O)c3c(C)nc(N4CCN(Cc5ccccc5)CC4)nc3C2)cc1OC` (stereo not shown): 12.9%.
As for `O=C(NC(Cc1ccccc1)C(=O)O)/C(=C/c1cccc([N+](=O)[O-])c1)NC(=O)c1cccc(Br)c1` (stereo not shown), the “hERG current change (%, negative = inhibition) at 1uM” value is 19.3%.
As to `O=C(NCc1nc2ccccc2[nH]1)c1cccs1`, the “hERG current change (%, negative = inhibition) at 1uM” value was found to be 12.2%.
The value for `CCOc1ccc(-n2nc3c(SCCN4CCCC4)nnc(C)c3c2C)cc1` was -21.4%; that for `COc1cc(/C=N/NC(=O)c2cncc(Br)c2)cc([N+](=O)[O-])c1O` was 24.5%; that for `CCOC(=O)C(Sc1nnc2c3ccccc3n(CC)c2n1)C(=O)OCC` was 11%.
The value for `COc1ccc(C2=NOC(Cn3nc(C(=O)NCc4ccc5c(c4)OCO5)cc3-c3ccccc3)C2)cc1` (stereo not shown) was 9.73%; that for `CSc1ccc(CN(C)CC(=O)N(C)CC(=O)Nc2ccccc2Br)cc1` was -4.81%.
The value for `Cc1ccc(/C=C/C(=O)Nc2ccc([N+](=O)[O-])cc2)o1` was 6.39%; that for `COC(=O)C1=C(c2ccc(Cl)c(C(F)(F)F)c2)C[C@@H]2CC[C@H]1N2C(=O)NCCO` was 10.6%.
Turning to `Cc1ccc(N/N=C(\C#N)C(N)=S)c(C)c1`, the “hERG current change (%, negative = inhibition) at 1uM” value was 13.5%.
The value for `c1ccc2c(c1)Cn1c-2nc2ccccc21` was -2.19%; that for `CC(=O)c1ccc(OCCn2cnc3ccccc32)cc1` was -2.47%; that for `O=C(CO/N=C1\CCCc2nonc21)Nc1ccc(Br)cc1` was 2.7%.
The value for `CCOc1cccc(C2C(C(=O)c3ccc(C)o3)=C(O)C(=O)N2CCCn2ccnc2)c1` (stereo not shown) was -8.98%; that for `Cc1cc(OCC(=O)NC(C)C)cc(C)c1Cl` was 10.7%; that for `O=C(Nc1ccccc1N1CCOCC1)c1ccc2c(c1)OCCO2` was 10%.
The value for `Cc1ccccc1-n1nnnc1SCC(N)=O` was 20.9%; that for `COc1cc(C(=O)NNC(=O)NC2CCCCC2)cc(OC)c1OC` was 2.65%.
With `CN(C(=O)c1cc2c(=O)n3ccccc3nc2n1C)C1CCCCC1`, the “hERG current change (%, negative = inhibition) at 1uM” value is -9.03%.
The value for `CCOc1ccc(Nc2nc(CC(=O)OC)cc(=O)[nH]2)cc1` was -0.749%.
Consider `NNC(=O)C(Cc1cnc[nH]1)NC(=O)OCc1ccccc1` (stereo not shown), for which the “hERG current change (%, negative = inhibition) at 1uM” value is reported as 11.7%.
The value for `COCCCNC(=O)C1=CCN(S(=O)(=O)c2ccc(C)cc2)CC1` was -4.01%; that for `CCOc1cc2[nH]c(=O)n(CCCN3CCN(c4ccc(OC)cc4)CC3)c(=O)c2cc1OCC` was -19.2%.
The value for `COc1cc2c(cc1OC)CN(C(=O)/C=C/c1ccc([N+](=O)[O-])cc1)CC2` was -18.4%; that for `CS(=O)(=O)NCCNc1ccc(C(F)(F)F)cc1[N+](=O)[O-]` was 6.16%.
The same measure for `COC(=O)C1=C(C)N(c2cc(C)cc(C)c2)/C(=C/c2ccc(O)cc2)C1=O`: 7.71%; for `O=c1[nH]c(-c2ccccc2)nc2ccccc12`: 15.7%.
Regarding `CC(=O)N(/C=C1\SC(=S)N(c2ccccc2)C1=O)c1ccccc1`, the “hERG current change (%, negative = inhibition) at 1uM” value is recorded as 1.77%.
The same measure for `COC1CCCN(C(=O)c2ccc(OC3CCN(S(=O)(=O)N(C)C)CC3)cc2)C1` (stereo not shown): 12.1%.
The same measure for `CCSC1=C(C#N)C(c2ccccc2OC)CC(=O)N1` (stereo not shown): 6.79%.
As for `CCN(CC)CCNC(=O)CCCCn1c(=S)[nH]c2c([nH]c3ccc(OC)cc32)c1=O`, the “hERG current change (%, negative = inhibition) at 1uM” value amounted to 20.4%.
The value for `Cc1cc(C)cc(N(CC(=O)NC(C)C)C(=O)CCC(=O)Nc2ccccn2)c1` was 7.58%; that for `COC(=O)c1ccccc1NC(=O)c1cnn2cccnc12` was 4.41%.
Take `C/C=C/C(=O)Nc1cccc(C(F)(F)F)c1`: the “hERG current change (%, negative = inhibition) at 1uM” value is listed as 10.8%.
As for `COC(=O)c1cccnc1N1CCN(c2ccccc2F)CC1`, the “hERG current change (%, negative = inhibition) at 1uM” value is -10.4%.
For `CCc1nc2ccc(C(=O)NCCCN3CCN(c4ccc(F)cc4)CC3)cc2nc1CC`, the “hERG current change (%, negative = inhibition) at 1uM” value is -12.4%.
With `Cc1cc(C)c(C2=NOC3C4CCC(C4)C23)c(C)c1` (stereo not shown), the “hERG current change (%, negative = inhibition) at 1uM” value is 11.2%.
Consider `Cc1ccccc1C(=O)NNC(=O)C(=O)N1CCCCC1`, for which the “hERG current change (%, negative = inhibition) at 1uM” value turned out to be 14.4%.
The value for `CCNCc1cc(OCC)c(OCC(=O)NCCc2ccccc2)cc1Cl.Cl` was 3.75%; that for `Cc1cc(NC(=O)CSc2n[nH]c(=O)[nH]c2=O)ccc1Br` was 18.9%; that for `Cc1ccccc1-c1nc(CS(=O)(=O)CC(=O)NCCN2CCCC2)c(C)o1` was 7.89%.
The value for `O=C(NNC(=O)C1CCN(C(=O)Nc2ccccc2)CC1)c1ccc([N+](=O)[O-])cc1` was 7.93%.
As for `Br.O=C(N=c1nc2ccccn2s1)c1ccccc1`, the “hERG current change (%, negative = inhibition) at 1uM” value was found to be 19.4%.
The value for `COc1cc(CN2CCC(n3nccc3NC(=O)c3ccccc3OC)CC2)ccc1F` was -77.6%; that for `O=C(c1ccccc1)N1CCC(CC2CC(c3ccc(Cl)cc3)=NO2)(C(=O)NCC2CCCCC2)CC1` (stereo not shown) was -12.1%; that for `CC1CCN(c2ccc3c(c2)S(=O)(=O)c2cccc(C(=O)NCc4ccc(F)cc4)c2C3=O)CC1` was 15.9%.
The same measure for `COC(=O)CCC(=O)OC1(C)C(=O)C2=CN(Cc3ccco3)C(c3ccc(OC)cc3)=CC2=C(Br)C1=O` (stereo not shown): 5.7%; for `Cc1cccc(NC(=S)N(Cc2ccc(Cl)cc2)Cc2ccc(C(=O)O)cc2)c1`: 18.9%.
The value for `COc1ccc2cc(C(C)C(=O)NC3CCC(O)CC3)ccc2c1` (stereo not shown) was 13.4%; that for `Cc1ccsc1C(=O)C1CCCN(Cc2cccn2-c2ccccn2)C1` (stereo not shown) was -81.7%; that for `Oc1ccccc1C=NC1=NN(c2cccc(C(F)(F)F)c2)CC1` was 3.03%.
On to `CNC(=O)COC(=O)c1ccc(Cl)c(S(N)(=O)=O)c1`, for which the “hERG current change (%, negative = inhibition) at 1uM” value is recorded as -18.6%.
The same measure for `O=C(CCC(=O)N1CCCc2ccccc21)N1CCN(S(=O)(=O)c2ccccc2)CC1`: 8.14%; for `O=C(NCCc1nc2ccccc2[nH]1)c1ccc([N+](=O)[O-])cc1`: -5.66%; for `COC(=O)N(C)c1nc2ccccc2s1`: 1.56%.
`CCOc1ccc(NC(=O)CN2CCN(c3ccc(F)cc3)CC2)cc1`: the “hERG current change (%, negative = inhibition) at 1uM” value amounted to 11.4%.
`COc1cccc(-n2c(C)nc3ccccc3c2=O)c1`: the “hERG current change (%, negative = inhibition) at 1uM” value is given as 8.45%.
The same measure for `COc1cccc(C(=O)Oc2cccc(N3C(=O)C4C5CC(C(Br)C5Br)C4C3=O)c2)c1` (stereo not shown): -0.71%; for `CC(=O)Oc1ccc(-c2csc(Nc3cccc(C)n3)n2)cc1`: 16.3%; for `O=C(COc1ccccc1Cl)Nc1ccc2c(c1)OCO2`: -3.33%.
The value for `CCC(CO)n1c(=S)[nH]c2cc(OC)c(OC)cc2c1=O` (stereo not shown) was 15.1%.
The same measure for `O=C(COc1ccccc1[N+](=O)[O-])N/N=C/c1cccc(OC(=O)c2ccc3c(c2)OCO3)c1`: -2.13%; for `O=C(NCCOCCOCCNC(=O)c1ccccc1)c1ccccc1`: 14.2%.
As for `CN(C)CCCNc1ccc(-c2cc(Nc3cccc(Cl)c3)ncn2)cn1`, the “hERG current change (%, negative = inhibition) at 1uM” value is given as -26.6%.
The same measure for `CCOCC(=O)Nc1ccc(S(=O)(=O)Nc2ncccn2)cc1`: 14.5%; for `CCN(CC(=O)Nc1cccc(OC)c1)CC(=O)Nc1ccc(Br)c(C)c1`: 7.46%.
On to `Cc1ccc2occ(C(c3nnnn3Cc3ccccc3)N3CCOCC3)c(=O)c2c1` (stereo not shown), for which the “hERG current change (%, negative = inhibition) at 1uM” value is listed as 8.56%.
The value for `Br.Cc1ccnc(Nc2nc(-c3sc(C)nc3C)cs2)c1` was 10.5%.
The value for `N#Cc1ccc(-c2csc(NNC(=O)c3ccc(Br)cc3)n2)cc1` was 7.82%.
For `CCN(c1cccc(C)c1)S(=O)(=O)c1ccc(-c2ccc(=O)[nH]n2)o1`, the “hERG current change (%, negative = inhibition) at 1uM” value stood at 12.8%.
The same measure for `COc1nc2ccccc2nc1N1CCN(C)CC1`: 9.95%; for `CC(=O)C[C@H]1c2cc(C(F)(F)F)ccc2S(=O)(=O)N1c1ccccc1`: 7.9%; for `CCCCNC(=O)C1(c2ccc(OC)cc2)CCOCC1`: 15.2%.
The same measure for `Cc1cc2nc(CS)[nH]c2cc1C`: 8.24%.
On to `COn1c(C)c(C(C)=O)c2c3no[n+]([O-])c3ccc21`, for which the “hERG current change (%, negative = inhibition) at 1uM” value worked out at 13.3%.
The same measure for `COc1cccc(C2=NN(C(=O)c3cccs3)C(O)(C(F)(F)F)C2)c1` (stereo not shown): 3.27%; for `CC(=O)c1cccc(NCC(=O)Nc2cccc(S(=O)(=O)N3CCCCC3)c2)c1`: -6.63%; for `COCCN(C(=O)CSc1nc2ccccc2c(=O)n1CCOC)c1c(N)n(Cc2ccccc2)c(=O)[nH]c1=O`: 12.6%.

Values taken from paper PMC4336329 (PLoS ONE, 2015).
